Some of the results follow.
T1: UNK ZnF1-3 (human, UniProt Q9C0B0 31-174)
T1 sequence: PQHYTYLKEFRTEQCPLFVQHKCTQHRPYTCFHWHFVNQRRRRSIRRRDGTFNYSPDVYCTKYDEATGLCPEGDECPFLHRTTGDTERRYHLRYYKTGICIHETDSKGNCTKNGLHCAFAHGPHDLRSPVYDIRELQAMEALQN

B1: 109126449_109126569_1254_3pUTR_ENSMUSG00000028557_ENSMUST00000030284|mouse|control|control (ssRNA)
RNA: GGGAGUUCUACAGUCCGACGAUCUGUCAGUAACUUUUCAGAAAAGAAUUUGGGUGGGAGAAGAAACUUAUUUCAUUUAGGAAAAAUAACAACUAUCUUUUUCCUAAGCUUCAACACACACAAUUUAAACAUGUACAGUUGCUGCAACAGAGGAUUGAGCAUCA
B2: chr7:82072735:82072736:-_ENSG00000153956_ENST00000356860|hu_hu|FALSE|FALSE (ssRNA)
RNA: GGGAGUUCUACAGUCCGACGAUCAGUGACGGCCGAAGGGAACGGCUCCUCCGACGAGGGGCCGAUGAGCAAAGAUUGGAAAAGUGUCAGAGUCAAGGCCAGCAGGCAGCCAGCAGCCAUCUUCGCGAUCGAAGAUCAAUGCCCCAACAGAGGAUUGAGCAUCA
B3: chrX:129364583:129364584:-_ENSG00000056277_ENST00000370978|hu_hu|FALSE|FALSE (ssRNA)
RNA: GGGAGUUCUACAGUCCGACGAUCAGUCUUUGGCUCUUUCUCAGUGACUCCUUCAUGCCUUCCAUAAUAAAACUCAUUGACUAACAUGAUCAACUUUCCUGUCUCUGAAUCAGUCUUGUCUUCAUCACAUGGACGUUCUGAUUUCAACAGAGGAUUGAGCAUCA
B4: chr17:64801638:64801639:+_ENSG00000154229_ENST00000413366|hu_mus|hu_hu_hu_mus_False|98_108 (ssRNA)
RNA: GGGAGUUCUACAGUCCGACGAUCUAUAAAUACAUAUAUAUACACACACAUAUAUAGUAAAACCCUAGUUAAACGUGUAAAGUAGCCAUUCAUUUUUAAAAUUACAUCUACAUUAAAAAAUUAAUAUAUCUGAUAGAGUGCCAGCAACAGAGGAUUGAGCAUCA
B5: chr22:19452774:19452775:-_ENSG00000070010_ENST00000399523|hu_hu|hu_hu_hu_mus_False|58_98 (ssRNA)
RNA: GGGAGUUCUACAGUCCGACGAUCCUUCUCAUUGUAGUUGAUGGCAAUCACAUCUCCAGUCGUCAGACAGGCGAAGUUCCUAAGUGCAUUUUCUAAUACCGCUUUAGGGUUGGUAAUAUCCAGGAAGUCUGGGCUCUGAGGCUGCAACAGAGGAUUGAGCAUCA
B6: 30680257_30680466_1086_3pUTR_ENSG00000156860_ENST00000287468|human|control|control (ssRNA)
RNA: GGGAGUUCUACAGUCCGACGAUCGAGGCCCCUCCUCACCAGCCCGGGCCUUGGGAGUAGCAGGAGAAACUCGGAGCUGGGGCCGUGAGAAGGGGAGGUCCCUGUCCUUCUCCUCCUUGGUGAUGGAGGGCUCCCUCCGCUCCACAACAGAGGAUUGAGCAUCA

What follows are binders tested against T1, UNK ZnF1-3 (assay: nsRBNS (natural sequence RNA bind-n-seq); RBNS binding buffer (assumed for nsRBNS): 25 mM Tris pH 7.5, 150 mM KCl, 3 mM MgCl2, 0.01% Triton X-100, 500 ug/ml BSA, 20 U/ml SUPERase-In, 4 C; UNK is unkempt and MSI1 is Musashi-1; names of the RNAs are library labels; protein concentration not given here; high values mean tight binding).

Binder	binding signal [enrichment R]
B1	1.19
B2	1.53
B3	0.661
B4	2.22
B5	0.951
B6	0.829

Source: paper PMC12136788
